# From the supplement of paper PMC8728848
# This is one part of the list.
# Key:
# Assay in all cases: glycan array binding signal (z-score within array); higher = stronger binding
# Settings in all cases: glycan notation: IUPAC condensed, linker removed
# [1] = molecular target: GlcNAc(b1-3)Gal(b1-4)GlcNAc(b1-3)Gal(b1-4)GlcNAc(b1-2)Man(a1-3)[GlcNAc(b1-3)Gal(b1-4)GlcNAc(b1-3)Gal(b1-4)GlcNAc(b1-2)Man(a1-6)]Man(b1-4)GlcNAc(b1-4)GlcNAc
# Procedure, shortened: (§1)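 From the Consortium for Functional Glycomics database, 3228 arrays were curated, keeping only those whose protein sequence was available. Binding is given as a within-array Z-score averaged across arrays sharing a protein sequence and across linkers. Negative Z-scores can be read as non-binding.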
# [2] = molecular target: GlcNAc(b1-3)Gal(b1-4)GlcNAc(b1-3)Gal(b1-4)GlcNAc(b1-2)Man(a1-3)[GlcNAc(b1-3)Gal(b1-4)GlcNAc(b1-3)Gal(b1-4)GlcNAc(b1-2)Man(a1-6)]Man(b1-4)GlcNAc(b1-4)[Fuc(a1-6)]GlcNAc
# Procedure, shortened: as §1
# [3] = molecular target: GlcNAc(b1-3)Gal(b1-4)GlcNAc(b1-3)Gal(b1-4)GlcNAc(b1-2)[GlcNAc(b1-3)Gal(b1-4)GlcNAc(b1-3)Gal(b1-4)GlcNAc(b1-6)]Man(a1-6)[GlcNAc(b1-3)Gal(b1-4)GlcNAc(b1-3)Gal(b1-4)GlcNAc(b1-2)Man(a1-3)]Man(b1-4)GlcNAc(b1-4)[Fuc(a1-6)]GlcNAc
# Procedure, shortened: as §1
# [4] = molecular target: GlcNAc(b1-3)Gal(b1-4)GlcNAc(b1-3)Gal(b1-4)GlcNAc(b1-3)Gal(b1-4)GlcNAc(b1-2)Man(a1-3)[GlcNAc(b1-3)Gal(b1-4)GlcNAc(b1-3)Gal(b1-4)GlcNAc(b1-3)Gal(b1-4)GlcNAc(b1-2)Man(a1-6)]Man(b1-4)GlcNAc(b1-4)GlcNAc
# Procedure, shortened: as §1
# [5] = molecular target: GlcNAc(b1-3)Gal(b1-4)GlcNAc(b1-3)Gal(b1-4)GlcNAc(b1-3)Gal(b1-4)GlcNAc(b1-2)Man(a1-3)[GlcNAc(b1-3)Gal(b1-4)GlcNAc(b1-3)Gal(b1-4)GlcNAc(b1-3)Gal(b1-4)GlcNAc(b1-2)Man(a1-6)]Man(b1-4)GlcNAc(b1-4)[Fuc(a1-6)]GlcNAc
# Procedure, shortened: as §1
# [6] = molecular target: GlcNAc(b1-3)Gal(b1-4)GlcNAc(b1-3)Gal(b1-4)GlcNAc(b1-3)Gal(b1-4)GlcNAc(b1-2)[GlcNAc(b1-3)Gal(b1-4)GlcNAc(b1-3)Gal(b1-4)GlcNAc(b1-3)Gal(b1-4)GlcNAc(b1-6)]Man(a1-6)[GlcNAc(b1-3)Gal(b1-4)GlcNAc(b1-3)Gal(b1-4)GlcNAc(b1-3)Gal(b1-4)GlcNAc(b1-2)Man(a1-3)]Man(b1-4)GlcNAc(b1-4)[Fuc(a1-6)]GlcNAc
# Procedure, shortened: as §1
# [7] = molecular target: GlcNAc(b1-3)Gal(b1-4)GlcNAc(b1-3)Gal(b1-4)GlcNAc(b1-3)Gal(b1-4)GlcNAc(b1-3)Gal(b1-4)GlcNAc(b1-2)Man(a1-3)[GlcNAc(b1-3)Gal(b1-4)GlcNAc(b1-3)Gal(b1-4)GlcNAc(b1-3)Gal(b1-4)GlcNAc(b1-3)Gal(b1-4)GlcNAc(b1-2)Man(a1-6)]Man(b1-4)GlcNAc(b1-4)GlcNAc
# Procedure, shortened: as §1
# [8] = molecular target: GlcNAc(b1-3)Gal(b1-4)GlcNAc(b1-3)Gal(b1-4)GlcNAc(b1-3)Gal(b1-4)GlcNAc(b1-3)Gal(b1-4)GlcNAc(b1-2)Man(a1-3)[GlcNAc(b1-3)Gal(b1-4)GlcNAc(b1-3)Gal(b1-4)GlcNAc(b1-3)Gal(b1-4)GlcNAc(b1-3)Gal(b1-4)GlcNAc(b1-2)Man(a1-6)]Man(b1-4)GlcNAc(b1-4)[Fuc(a1-6)]GlcNAc
# Procedure, shortened: as §1
# [9] = molecular target: GlcNAc(b1-3)Gal(b1-4)GlcNAc(b1-3)Gal(b1-4)GlcNAc(b1-3)Gal(b1-4)GlcNAc(b1-3)Gal(b1-4)GlcNAc(b1-2)[GlcNAc(b1-3)Gal(b1-4)GlcNAc(b1-3)Gal(b1-4)GlcNAc(b1-3)Gal(b1-4)GlcNAc(b1-3)Gal(b1-4)GlcNAc(b1-6)]Man(a1-6)[GlcNAc(b1-3)Gal(b1-4)GlcNAc(b1-3)Gal(b1-4)GlcNAc(b1-3)Gal(b1-4)GlcNAc(b1-3)Gal(b1-4)GlcNAc(b1-2)Man(a1-3)]Man(b1-4)GlcNAc(b1-4)[Fuc(a1-6)]GlcNAc
# Procedure, shortened: as §1
# [10] = molecular target: GlcNAc(b1-3)Gal(b1-4)GlcNAc(b1-3)Gal(b1-4)GlcNAc(b1-3)GalNAc
# Procedure, shortened: as §1
# [11] = molecular target: GlcNAc(b1-3)Gal(b1-4)GlcNAc(b1-3)GalNAc
# Procedure, shortened: as §1
# [12] = molecular target: GlcNAc(b1-3)Gal(b1-4)GlcNAc(b1-3)[GlcNAc(b1-3)Gal(b1-4)GlcNAc(b1-3)]GalNAc
# Procedure, shortened: as §1
# [13] = molecular target: GlcNAc(b1-3)Gal(b1-4)GlcNAc(b1-6)[Gal(b1-3)]GalNAc
# Procedure, shortened: as §1
# [14] = molecular target: GlcNAc(b1-3)Gal(b1-4)GlcNAc(b1-6)[GlcNAc(b1-3)Gal(b1-3)]GalNAc
# Procedure, shortened: as §1
# [15] = molecular target: GlcNAc(b1-3)Gal(b1-4)GlcNAc(b1-6)[GlcNAc(b1-3)]Gal(b1-4)GlcNAc
# Procedure, shortened: as §1
# [16] = molecular target: GlcNAc(b1-3)GalNAc
# Procedure, shortened: as §1
# [17] = molecular target: GlcNAc(b1-3)Man
# Procedure, shortened: as §1
# [18] = molecular target: GlcNAc(b1-3)[GlcNAc(b1-4)][GlcNAc(b1-6)]GlcNAc
# Procedure, shortened: as §1
# [19] = molecular target: GlcNAc(b1-3)[GlcNAc(b1-6)]Gal(b1-4)GlcNAc
# Procedure, shortened: as §1
# [20] = molecular target: GlcNAc(b1-3)[GlcNAc(b1-6)]GalNAc
# Procedure, shortened: as §1
# [21] = molecular target: GlcNAc(b1-3)[GlcNAc(b1-6)]GlcNAc
# Procedure, shortened: as §1
# [22] = molecular target: GlcNAc(b1-4)Gal(b1-4)GlcNAc
# Procedure, shortened: as §1
# [23] = molecular target: GlcNAc(b1-4)GlcNAc
# Procedure, shortened: as §1
# [24] = molecular target: GlcNAc(b1-4)GlcNAc(b1-4)GlcNAc
# Procedure, shortened: as §1
# [25] = molecular target: GlcNAc(b1-4)GlcNAc(b1-4)GlcNAc(b1-4)GlcNAc(b1-4)GlcNAc
# Procedure, shortened: as §1
# [26] = molecular target: GlcNAc(b1-4)GlcNAc(b1-4)GlcNAc(b1-4)GlcNAc(b1-4)GlcNAc(b1-4)GlcNAc
# Procedure, shortened: as §1
# [27] = molecular target: GlcNAc(b1-4)[GlcNAc(b1-6)]GalNAc
# Procedure, shortened: as §1
# [28] = molecular target: GlcNAc(b1-6)Gal(b1-4)GlcNAc
# Procedure, shortened: as §1
# [29] = molecular target: GlcNAc(b1-6)GalNAc
# Procedure, shortened: as §1
# [30] = molecular target: GlcNAc3Prop(b1-4)GlcNAc
# Procedure, shortened: as §1
binder,measurement,setting,value
"Epa1-NP (Candida glabrata), Q6VBJ0 (protein) MILNPALFLNKCVCIYTTLILLLLTNGGYATSSNDISLASKDPTTFPLGCSPDITTPKKGLSMELYSYDFRKKGSYPCWDAAYLDPNYPRTGYKSHRLLAKVDGVTGNINFYYHATKGCTPQLGHLPASYNYPKPLTMTNFTMLLYGYFRPKVTGFHTFTISADDLLFVNFGAGNAFDCCRRDSSADHFGNYQAYAIWGSKTAKDELTVHLDAGVYYPIRLFYNNREYDGALSFTFKTESNENTVSDFSEYFFSLDDTEEGCPGLISYDSSCASVKTSKIIGIDYHTETPNENLVPITKTIYHLGIPCTGTTTTPLCGSGFYDPLANKCVTINTSSTSSVTKTTSHTTSKEVSFHSSISSQKTLIPKSIPSPYGPIKSQSIPTEMETSSEISSSEYAFSDVISTPSHSPYTKKHSSLNSSSYTSTVIHSLTSYSISQGIFSTSLSEQNITSKSSTDKFSTATSMSNNITQSSIIISQFSTNNENYTTTSMHTSSDKISTETLNNSISTTTSILFSNSSTILKNNTTIISSDKDTHYHPVNPTIVCSTNKTEIICASITQPSISNSNNHWSSSVLKFNSTTVRSTLPSSAGSNETSINVPFSSSTESNTSTSSTSTSNSKMVRSTLPSSAGSNETSISVPFSSSTESNTSTSSTSTSNSKMVRSTLPSSAGSNETSINVPFSSSTESNTSTSSTSTSNSKTVRSTPFSSAGIIMTSLSQRNNKSASSYASSNSKCYNTADSCRKVHSTPSYLLTSSYTSEGVDYDCSLVSTKLKINDTNCVNNKHTTKSCLKTSVTTTIPTLEIKTARKSSSNTIGLHSYPTSSPNKSISSAPIIGYISSFKTIKTASPSYQTSDLTTITTITSLNNPGSTAVENTHESNDKSRKTSSNDISSKHSVIKETKDAVESSNKSHQTNTLKCSSIIIASSSHNSYESLGGTTLTLTLSKVYSPQNNDTLPFLEISEVNPSRTVLPESSKMMQYLTSTEERNKTARNTIATNIVSISTFHFEGEGNAIRMGYTQLLLMLIGIIVMNIGT",glycan array binding signal (z-score),[1],-0.273
same,glycan array binding signal (z-score),[2],-0.277
same,glycan array binding signal (z-score),[3],-0.27
same,glycan array binding signal (z-score),[4],-0.281
same,glycan array binding signal (z-score),[5],-0.279
same,glycan array binding signal (z-score),[6],-0.275
same,glycan array binding signal (z-score),[7],-0.277
same,glycan array binding signal (z-score),[8],-0.267
same,glycan array binding signal (z-score),[9],-0.281
same,glycan array binding signal (z-score),[10],-0.284
same,glycan array binding signal (z-score),[11],-0.287
same,glycan array binding signal (z-score),[12],-0.287
same,glycan array binding signal (z-score),[13],1.14
same,glycan array binding signal (z-score),[14],-0.288
same,glycan array binding signal (z-score),[15],-0.291
same,glycan array binding signal (z-score),[16],-0.313
same,glycan array binding signal (z-score),[17],-0.296
same,glycan array binding signal (z-score),[18],-0.341
same,glycan array binding signal (z-score),[19],-0.331
same,glycan array binding signal (z-score),[20],-0.284
same,glycan array binding signal (z-score),[21],-0.555
same,glycan array binding signal (z-score),[22],-0.315
same,glycan array binding signal (z-score),[23],-0.276
same,glycan array binding signal (z-score),[24],-0.346
same,glycan array binding signal (z-score),[25],-0.331
same,glycan array binding signal (z-score),[26],-0.319
same,glycan array binding signal (z-score),[27],-0.319
same,glycan array binding signal (z-score),[28],1.39
same,glycan array binding signal (z-score),[29],-0.314
same,glycan array binding signal (z-score),[30],-0.239
